The record followed here is the antibiotic and cytotoxicity screens of Wong et al. (2023).

Some of the results follow.

In test [1] the test system is HSkMC (human skeletal muscle cells). Nature of the test: cytotoxicity call (relative viability < 0.9). As to conditions: 10 µM.
Test [2] deals with S. aureus RN4220. Nature of the test: growth inhibition call (relative growth <= 0.2). The settings on record: 50 µM.

`C[C@@H]1CCCCO[C@H](CN(C)S(=O)(=O)c2ccc(Cl)cc2)[C@@H](C)CN([C@@H](C)CO)C(=O)c2cc(NS(=O)(=O)c3ccc(Cl)cc3)ccc2O1`: in test [1], the cytotoxicity call was “inactive”. In addition, in test [2], the growth inhibition call is “inactive”.
Consider `COCC#Cc1ccc2c(c1)O[C@@H](CN(C)C(=O)C1CCCCC1)[C@@H](C)CN([C@H](C)CO)S2(=O)=O`, for which, in test [1], the cytotoxicity call is “inactive”. In addition, the growth inhibition call in test [2] is “inactive”.
Consider `Cc1noc(C)c1S(=O)(=O)Nc1cccc2c1O[C@H](CN(C)S(=O)(=O)c1ccc(Cl)cc1)[C@H](C)CN([C@H](C)CO)C2=O`, for which the cytotoxicity call in test [1] was “inactive”. In test [2], the growth inhibition call was “inactive”.
Consider `COc1ccccc1NC(=O)N(C)C[C@H]1Oc2ncc(C#CCN(C)C)cc2C(=O)N([C@H](C)CO)C[C@H]1C`, for which the cytotoxicity call in test [1] was “inactive”. Also, the growth inhibition call in test [2] is “inactive”.
Consider `C[C@@H]1CN([C@H](C)CO)C(=O)Cc2cc(NC(=O)Cc3ccccc3)ccc2O[C@H]1CN(C)Cc1ccc(-c2ccccc2)cc1`, for which, in test [1], the cytotoxicity call is “inactive”. The growth inhibition call in test [2] is “inactive”.
Consider `C[C@@H]1CN([C@H](C)CO)C(=O)c2cccc(NC(=O)C3CC3)c2O[C@@H]1CN(C)S(=O)(=O)c1ccc(F)cc1`, for which the cytotoxicity call in test [1] was “inactive”. In addition, the growth inhibition call in test [2] was “inactive”.
Regarding `CC(C)NC(=O)Nc1ccc2c(c1)C(=O)N([C@@H](C)CO)C[C@H](C)[C@H](CN(C)Cc1ccc(C(F)(F)F)cc1)OCCCC[C@H](C)O2`, the cytotoxicity call in test [1] is “inactive”. Besides, in test [2], the growth inhibition call was “inactive”.
Consider `CC(NCCc1ccc(O)cc1)C(O)c1ccc(O)cc1.Cl` (stereo not drawn), for which the cytotoxicity call in test [1] was “inactive”. Further, the growth inhibition call in test [2] is “inactive”.
As for `Cc1noc(C)c1NC(=O)Nc1ccc2c(c1)C(=O)N([C@@H](C)CO)C[C@@H](C)[C@@H](CN(C)C(=O)Nc1ccc(F)cc1)OCCCC[C@@H](C)O2`, the cytotoxicity call in test [1] is “inactive”. The growth inhibition call in test [2] was “inactive”.
As to `C[C@H](CO)N1C[C@H](C)[C@H](CN(C)Cc2ccc(C(F)(F)F)cc2)Oc2c(NC(=O)c3ccc(-c4nccs4)cc3)cccc2C1=O`, the cytotoxicity call in test [1] is “inactive”. In addition, the growth inhibition call in test [2] is “inactive”.
Regarding `COCC#Cc1cnc2c(c1)C(=O)N([C@H](C)CO)C[C@H](C)[C@@H](CN(C)S(=O)(=O)c1cccc(OC)c1)O2`, the cytotoxicity call in test [1] is “inactive”. Further, in test [2], the growth inhibition call was “inactive”.
On to `O=C(NCC(F)(F)F)[C@@H]1c2ccccc2C(=O)N(Cc2cc(C(F)(F)F)cc(C(F)(F)F)c2)[C@H]1c1ccc(CO)cc1`, for which the cytotoxicity call in test [1] was “inactive”. Also, in test [2], the growth inhibition call is “inactive”.
In the case of `Cc1noc(C)c1NC(=O)Nc1ccc2c(c1)C(=O)N([C@@H](C)CO)C[C@@H](C)[C@@H](CN(C)S(C)(=O)=O)O2`, the cytotoxicity call in test [1] is “inactive”. The growth inhibition call in test [2] is “inactive”.
As for `C[C@@H]1CN([C@H](C)CO)C(=O)c2cccc(NC(=O)c3ccc(-c4nccs4)cc3)c2O[C@H]1CN(C)C(=O)Nc1ccc2c(c1)OCO2`, in test [1], the cytotoxicity call was “inactive”. Moreover, in test [2], the growth inhibition call is “inactive”.
For `COc1cccc(S(=O)(=O)Nc2ccc3c(c2)[C@@H]2C[C@@H](CC(=O)NCc4ccccc4F)O[C@@H](CO)[C@@H]2O3)c1`, the cytotoxicity call in test [1] is “inactive”. Further, in test [2], the growth inhibition call is “inactive”.
As to `C[C@@H]1CCCCO[C@@H](CN(C)CC2CC2)[C@H](C)CN([C@H](C)CO)C(=O)c2cc(NC(=O)CCC(F)(F)F)ccc2O1`, in test [1], the cytotoxicity call was “inactive”. Besides, in test [2], the growth inhibition call was “inactive”.
`C[C@H](CO)N1C[C@H](C)[C@@H](CN(C)Cc2ccc3c(c2)OCO3)OCc2ccccc2-c2c(n(C)c3ccccc23)C1=O`: the cytotoxicity call in test [1] was “inactive”. Also, the growth inhibition call in test [2] is “inactive”.
Regarding `C[C@H]1CCCCO[C@H](CN(C)C(=O)NC2CCCCC2)[C@@H](C)CN([C@@H](C)CO)C(=O)c2cc(NC(=O)NC3CCCCC3)ccc2O1`, in test [1], the cytotoxicity call was “inactive”. Further, the growth inhibition call in test [2] is “inactive”.
With `C[C@H](CO)N1C[C@H](C)[C@@H](CN(C)C(=O)Nc2ccc3c(c2)OCO3)Oc2ncc(-c3ccncc3)cc2C1=O`, in test [1], the cytotoxicity call is “inactive”. In addition, the growth inhibition call in test [2] is “inactive”.
Take `C[C@H](CO)N1C[C@H](C)[C@H](CN(C)C(=O)CN(C)C)Oc2cc(-c3ccc(C#N)cc3)ccc2S1(=O)=O`: the cytotoxicity call in test [1] is “inactive”. Moreover, in test [2], the growth inhibition call is “inactive”.
As for `C[C@@H]1CN([C@@H](C)CO)C(=O)c2cc(N(C)C)ccc2O[C@@H](C)CCCCO[C@H]1CN(C)C(=O)Nc1cccc2ccccc12`, the cytotoxicity call in test [1] was “inactive”. Besides, the growth inhibition call in test [2] was “inactive”.
Consider `C[C@@H]1CCCCO[C@H](CN(C)C(=O)Nc2cccc3ccccc23)[C@@H](C)CN([C@H](C)CO)C(=O)c2cc(NC(=O)Nc3cccc4ccccc34)ccc2O1`, for which, in test [1], the cytotoxicity call is “inactive”. The growth inhibition call in test [2] was “inactive”.
Turning to `Cc1noc(C)c1NC(=O)N[C@@H]1C=C[C@@H](CC(=O)N2CCN(C)CC2)O[C@@H]1CO`, the cytotoxicity call in test [1] is “inactive”. Besides, the growth inhibition call in test [2] was “inactive”.
Consider `O=C/C=C/c1ccccc1Cl`, for which the cytotoxicity call in test [1] was “inactive”. Further, in test [2], the growth inhibition call was “inactive”.
On to `C[C@H]1CN([C@@H](C)CO)S(=O)(=O)c2ccc(C#CCN(C)C)cc2O[C@H]1CN(C)C(=O)CN(C)C`, for which, in test [1], the cytotoxicity call is “inactive”. Besides, the growth inhibition call in test [2] is “inactive”.
As for `COc1ccc(NC(=O)N(C)C[C@H]2OCCCC[C@H](C)Oc3ccc(NC(=O)Cc4ccccc4)cc3C(=O)N([C@H](C)CO)C[C@H]2C)cc1`, the cytotoxicity call in test [1] is “inactive”. In test [2], the growth inhibition call was “inactive”.
On to `COc1ccc(NC(=O)N(C)C[C@H]2OCCCC[C@H](C)Oc3ccc(NC(=O)Nc4ccccc4)cc3C(=O)N([C@H](C)CO)C[C@@H]2C)cc1`, for which, in test [1], the cytotoxicity call was “inactive”. In addition, the growth inhibition call in test [2] was “inactive”.
Consider `NCCN1CCOCC1`, for which the cytotoxicity call in test [1] is “inactive”. In test [2], the growth inhibition call was “inactive”.
`C[C@@H]1CCCCO[C@H](CN(C)Cc2ccc(Cl)c(Cl)c2)[C@@H](C)CN([C@@H](C)CO)C(=O)c2cc(N(C)C)ccc2O1`: the cytotoxicity call in test [1] is “inactive”. The growth inhibition call in test [2] is “inactive”.
